Experimental data as given in paper PMC6044718 (ACS Omega, 2017).
Where “and” joins values, the source holds several entries; their conditions need not be identical. Equal entries are not always repeated.

T1: extracellular domains of FGFR1c fused to Fc fragments, biotinylated (UniProt P11362 22-376, biotin (biotinylated; site not stated))
T1 sequence (looked up): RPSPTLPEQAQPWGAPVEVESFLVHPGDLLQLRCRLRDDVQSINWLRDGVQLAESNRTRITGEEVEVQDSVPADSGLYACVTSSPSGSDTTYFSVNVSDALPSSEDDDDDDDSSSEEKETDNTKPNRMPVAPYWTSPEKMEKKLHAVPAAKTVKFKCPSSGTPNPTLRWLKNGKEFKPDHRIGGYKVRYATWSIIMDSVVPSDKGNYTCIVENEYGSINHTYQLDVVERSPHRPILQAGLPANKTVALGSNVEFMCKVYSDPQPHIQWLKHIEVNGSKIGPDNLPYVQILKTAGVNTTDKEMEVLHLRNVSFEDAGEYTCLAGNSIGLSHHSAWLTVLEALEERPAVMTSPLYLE


molecular target: T1, extracellular domains of FGFR1c fused …; test: BLI

| koff | kon | Kd | Binder |
| --- | --- | --- | --- |
| 0.000218 s⁻¹ and 0.000351 s⁻¹ and 0.000286 s⁻¹ | 910000 M⁻¹ s⁻¹ and 1.9e+06 M⁻¹ s⁻¹ and 1.3e+06 M⁻¹ s⁻¹ | – | wild-type fibroblast growth factor 2 (FGF2) (ligand) not shown |
| 0.000661 s⁻¹ and 0.000648 s⁻¹ and 0.000375 s⁻¹ | 244000 M⁻¹ s⁻¹ and 309000 M⁻¹ s⁻¹ and 262000 M⁻¹ s⁻¹ | 2.71 nM and 2.08 nM and 2.1 nM and 1.43 nM | KCK-FGF2-(vcMMAE)3 (ligand, vcMMAE (maleimidocaproyl-Val-Cit-PABC-monomethylauristatin E) on Cys78, Cys96 and the cysteine of the N-terminal KCKSGG sequence) not shown |

Further lines, the binder ahead of its results:

| Binder | koff | kon | Kd |
| --- | --- | --- | --- |
| KCK-FGF2[C78S/C96S]-(vcMMAE)1 (ligand, vcMMAE (maleimidocaproyl-Val-Cit-PABC-monomethylauristatin E) on the cysteine of the N-terminal KCKSGG sequence) not shown | 0.000533 s⁻¹ and 0.00058 s⁻¹ and 0.000711 s⁻¹ | 545000 M⁻¹ s⁻¹ and 849000 M⁻¹ s⁻¹ and 866000 M⁻¹ s⁻¹ | 0.977 nM and 0.827 nM and 0.683 nM and 0.821 nM |
| FGF2 WT-(vcMMAE)2 (ligand, vcMMAE (maleimidocaproyl-Val-Cit-PABC-monomethylauristatin E) on the two exposed cysteines Cys78 and Cys96) not shown | 0.000254 s⁻¹ and 0.000386 s⁻¹ and 0.000514 s⁻¹ | 691000 M⁻¹ s⁻¹ and 916000 M⁻¹ s⁻¹ and 952000 M⁻¹ s⁻¹ | 0.367 nM and 0.443 nM and 0.422 nM and 0.54 nM |
